# Measured values published in the supplement of paper PMC8728848.
# Some of the results follow.
# B1: Dectin-1 (Mus musculus), Q6QLQ4 (protein)
# chain: GHNSGRNPEEKDNFLSRNKENHKPTESSLDEKVAPSKASQTTGGFSQPCLPNWIMHGKSCYLFSFSGNSWYGSKRHCSQLGAHLLKIDNSKEFEFIESQTSSHRINAFWIGLSRNQSEGPWFWEDGSAFFPNSFQVRNTAPQESLLHNCVWIHGSEVYNQICNTSSYSICEKEL
# Experiments:
# Assay in all cases: glycan array binding signal (z-score within array); higher = stronger binding
# Settings in all cases: glycan notation: IUPAC condensed, linker removed
# [1] = molecular target: GlcNAc(a1-4)Gal(b1-3)[Fuc(a1-2)]Gal
# In short: (§1)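 Glycan array binding is given as a within-array Z-score, which can be read as non-binding when negative. The arrays, 3228 of them, came from the Consortium for Functional Glycomics database and were retained only where the protein sequence was available. Z-scores were averaged across arrays of the same protein sequence at different concentrations or buffers and across linkers.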
# [2] = molecular target: GlcNAc(b1-2)Man(a1-3)[GlcNAc(b1-2)Man(a1-6)]Man(b1-4)GlcNAc(b1-4)GlcNAc
# In short: as §1
# [3] = molecular target: GlcNAc(b1-2)Man(a1-3)[GlcNAc(b1-2)Man(a1-6)]Man(b1-4)GlcNAc(b1-4)[Fuc(a1-6)]GlcNAc
# In short: as §1
# [4] = molecular target: GlcNAc(b1-2)Man(a1-3)[GlcNAc(b1-2)Man(a1-6)][GlcNAc(b1-4)]Man(b1-4)GlcNAc(b1-4)GlcNAc
# In short: as §1
# [5] = molecular target: GlcNAc(b1-2)Man(a1-3)[Man(a1-3)[Man(a1-6)]Man(a1-6)][GlcNAc(b1-4)]Man(b1-4)GlcNAc(b1-4)GlcNAc
# In short: as §1
# [6] = molecular target: GlcNAc(b1-2)[GlcNAc(b1-4)]Man(a1-3)[GlcNAc(b1-2)Man(a1-6)][GlcNAc(b1-4)]Man(b1-4)GlcNAc(b1-4)GlcNAc
# In short: as §1
# [7] = molecular target: GlcNAc(b1-2)[GlcNAc(b1-4)]Man(a1-3)[GlcNAc(b1-2)[GlcNAc(b1-4)][GlcNAc(b1-6)]Man(a1-6)][GlcNAc(b1-4)]Man(b1-4)GlcNAc(b1-4)GlcNAc
# In short: as §1
# [8] = molecular target: GlcNAc(b1-2)[GlcNAc(b1-4)]Man(a1-3)[GlcNAc(b1-2)[GlcNAc(b1-6)]Man(a1-6)]Man(b1-4)GlcNAc(b1-4)GlcNAc
# In short: as §1
# [9] = molecular target: GlcNAc(b1-3)Fuc
# In short: as §1
# [10] = molecular target: GlcNAc(b1-3)Gal(b1-4)Glc
# In short: as §1
# [11] = molecular target: GlcNAc(b1-3)[GlcNAc(b1-6)]Gal(b1-4)GlcNAc(b1-3)[GlcNAc(b1-6)]Gal(b1-4)GlcNAc(b1-3)Gal(b1-4)Glc
# In short: as §1
# [12] = molecular target: GlcNAc(b1-4)GlcNAc
# In short: as §1
# [13] = molecular target: GlcNAc(b1-4)GlcNAc(b1-4)GlcNAc
# In short: as §1
# [14] = molecular target: HexA(a1-3)GalNAc4S(b1-4)GlcA(b1-3)GalNAc4S
# In short: as §1
# [15] = molecular target: HexA(a1-3)GalNAc4S(b1-4)GlcA(b1-3)GalNAc4S(b1-4)GlcA(b1-3)GalNAc4S(b1-4)GlcA(b1-3)GalNAc4S(b1-4)GlcA(b1-3)GalNAc4S(b1-4)GlcA(b1-3)GalNAc4S(b1-4)GlcA(b1-3)GalNAc4S
# In short: as §1
# [16] = molecular target: HexA(a1-3)GalNAc4S(b1-4)IdoA(a1-3)GalNAc4S
# In short: as §1
# [17] = molecular target: HexA(a1-3)GalNAc4S(b1-4)IdoA(a1-3)GalNAc4S(b1-4)IdoA(a1-3)GalNAc4S(b1-4)IdoA(a1-3)GalNAc4S(b1-4)IdoA(a1-3)GalNAc4S(b1-4)IdoA(a1-3)GalNAc4S(b1-4)IdoA(a1-3)GalNAc4S
# In short: as §1
# [18] = molecular target: HexA(a1-3)GalNAc6S(b1-4)GlcA(b1-3)GalNAc6S
# In short: as §1
# [19] = molecular target: HexA(a1-3)GalNAc6S(b1-4)GlcA(b1-3)GalNAc6S(b1-4)GlcA(b1-3)GalNAc6S(b1-4)GlcA(b1-3)GalNAc6S(b1-4)GlcA(b1-3)GalNAc6S(b1-4)GlcA(b1-3)GalNAc6S(b1-4)GlcA(b1-3)GalNAc6S
# In short: as §1
# [20] = molecular target: HexA(a1-4)GlcNAc(a1-4)HexA(a1-4)GlcNAc(a1-4)HexA(a1-4)GlcNAc(a1-4)HexA(a1-4)Man
# In short: as §1
# [21] = molecular target: HexA2S(a1-4)GlcNS6S
# In short: as §1
# [22] = molecular target: Kdn(a2-3)[GalNAc(b1-4)]Gal(b1-3)GlcNAc
# In short: as §1
# [23] = molecular target: Man(a1-2)Man
# In short: as §1
# [24] = molecular target: Man(a1-2)Man(a1-2)Man(a1-3)[Man(a1-2)Man(a1-3)[Man(a1-2)Man(a1-6)]Man(a1-6)]Man(b1-4)GlcNAc(b1-4)GlcNAc
# In short: as §1
# [25] = molecular target: Man(a1-2)Man(a1-2)Man(a1-3)[Man(a1-2)Man(a1-6)[Man(a1-3)]Man(a1-6)]Man(b1-4)GlcNAc(b1-4)GlcNAc
# In short: as §1
# [26] = molecular target: Man(a1-2)Man(a1-2)Man(a1-3)[Man(a1-3)[Man(a1-6)]Man(a1-6)]Man(b1-4)GlcNAc(b1-4)GlcNAc
# In short: as §1
# [27] = molecular target: Man(a1-2)Man(a1-3)[Man(a1-2)Man(a1-6)[Man(a1-3)]Man(a1-6)]Man(b1-4)GlcNAc(b1-4)GlcNAc
# In short: as §1
# [28] = molecular target: Man(a1-2)Man(a1-3)[Man(a1-3)[Man(a1-6)]Man(a1-6)]Man(b1-4)GlcNAc(b1-4)GlcNAc
# In short: as §1
# [29] = molecular target: Man(a1-3)Man
# In short: as §1
# [30] = molecular target: Man(a1-3)Man(a1-6)[Man(a1-3)]Man(b1-4)GlcNAc(b1-4)GlcNAc
# In short: as §1
# [31] = molecular target: Man(a1-3)Man(b1-4)GlcNAc
# In short: as §1
# [32] = molecular target: Man(a1-3)[Man(a1-6)]Man
# In short: as §1
# [33] = molecular target: Man(a1-3)[Man(a1-6)]Man(a1-6)Man(b1-4)GlcNAc(b1-4)GlcNAc
# In short: as §1
# [34] = molecular target: Man(a1-3)[Man(a1-6)]Man(a1-6)[Man(a1-3)]Man
# In short: as §1
# [35] = molecular target: Man(a1-3)[Man(a1-6)]Man(a1-6)[Man(a1-3)]Man(b1-4)GlcNAc(b1-4)GlcNAc
# In short: as §1
# [36] = molecular target: Man(a1-3)[Man(a1-6)]Man(b1-4)GlcNAc(b1-4)GlcNAc
# In short: as §1
# [37] = molecular target: Man(a1-3)[Man(a1-6)]Man(b1-4)GlcNAc(b1-4)[Fuc(a1-6)]GlcNAc
# In short: as §1
# [38] = molecular target: Man(a1-6)Man
# In short: as §1
binder,measurement,setting,value
B1,glycan array binding signal (z-score),[1],-0.091
same,glycan array binding signal (z-score),[2],-0.091
same,glycan array binding signal (z-score),[3],-0.05
same,glycan array binding signal (z-score),[4],-0.091
same,glycan array binding signal (z-score),[5],-0.091
same,glycan array binding signal (z-score),[6],-0.07
same,glycan array binding signal (z-score),[7],-0.091
same,glycan array binding signal (z-score),[8],-0.076
same,glycan array binding signal (z-score),[9],-0.091
same,glycan array binding signal (z-score),[10],-0.029
same,glycan array binding signal (z-score),[11],-0.063
same,glycan array binding signal (z-score),[12],-0.037
same,glycan array binding signal (z-score),[13],-0.059
same,glycan array binding signal (z-score),[14],-0.072
same,glycan array binding signal (z-score),[15],-0.042
same,glycan array binding signal (z-score),[16],-0.044
same,glycan array binding signal (z-score),[17],-0.001
same,glycan array binding signal (z-score),[18],-0.079
same,glycan array binding signal (z-score),[19],0.018
same,glycan array binding signal (z-score),[20],-0.091
same,glycan array binding signal (z-score),[21],-0.091
same,glycan array binding signal (z-score),[22],-0.062
same,glycan array binding signal (z-score),[23],-0.052
same,glycan array binding signal (z-score),[24],-0.04
same,glycan array binding signal (z-score),[25],-0.004
same,glycan array binding signal (z-score),[26],-0.091
same,glycan array binding signal (z-score),[27],-0.091
same,glycan array binding signal (z-score),[28],-0.074
same,glycan array binding signal (z-score),[29],-0.021
same,glycan array binding signal (z-score),[30],-0.06
same,glycan array binding signal (z-score),[31],-0.034
same,glycan array binding signal (z-score),[32],-0.032
same,glycan array binding signal (z-score),[33],-0.091
same,glycan array binding signal (z-score),[34],-0.006
same,glycan array binding signal (z-score),[35],-0.06
same,glycan array binding signal (z-score),[36],-0.091
same,glycan array binding signal (z-score),[37],-0.044
same,glycan array binding signal (z-score),[38],0.016
